Measured values reported in the supplement of paper PMC10126150.
Values marked as one replicate rest on one cluster of the flow cell; about a third of the high ones do not repeat.
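Also: ATP exposure 15 min at 22 °C before imaging.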

What follows are sequences tested on ATP (assay: switch fluorescence ratio, 500 uM ATP over buffer (Cy3 cluster intensity, sum of 5 cycles each) (fold (ratio)); higher = stronger signal-on switching upon ATP binding; sequences stand for … in TCGTCGGCAGCGTCAGATGTGTATAAGAGACAGTTTTTTTTTTTTTTTTTTTTTTTTT…TC). Conditions: aptamer strand: ATP DNA aptamer (quencher-CACCTGGGGGAGTATTGCGGAGGAAGG + anchor), 100 nM annealed; ATP concentration: 500 uM; one replicate.
In short: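 The quencher-labelled ATP aptamer, at 100 nM, was annealed to Cy3-labelled switching-strand clusters on a modified Illumina MiSeq flow-cell. The clusters were imaged in selection buffer, then after 15 min with 500 uM ATP at 22 °C, and this buffer/ATP cycle ran five times with NaOH stripping and re-annealing between runs. Per-cluster fluorescence ratios, summed target-cycle over summed buffer-cycle Cy3 intensity, were averaged per switch-domain sequence. Clusters outside 100-1000 RFU were excluded.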
In the case of AGGAGGCAGA, the switch fluorescence ratio is reported as 0.992. AGGAGGCGTG was tested, and the switch fluorescence ratio was 0.985. Work on AGGAGGGCTA yielded a switch fluorescence ratio of 0.939. AGGAGTATTG showed a switch fluorescence ratio of 0.947. For AGGATAGGTA, the switch fluorescence ratio was 1.04. In the case of AGGATCAAGC, the switch fluorescence ratio is reported as 1. AGGATGATTC was tested, and the switch fluorescence ratio was 1.02. With AGGATGCCGG the switch fluorescence ratio was 1.01. AGGATTAAAA gave a switch fluorescence ratio of 0.96. With AGGATTGAAA the switch fluorescence ratio was 1.03. AGGATTGAT gave a switch fluorescence ratio of 0.977. AGGATTGGC showed a switch fluorescence ratio of 1.08. In the case of AGGATTGGCA, the switch fluorescence ratio is reported as 0.931. Work on AGGCACCATG yielded a switch fluorescence ratio of 0.995. Sequence AGGCACCGGA has a switch fluorescence ratio of 1.03. In the case of AGGCACGTTA, the switch fluorescence ratio is reported as 1.06. AGGCACTGGT gave a switch fluorescence ratio of 1.05. For AGGCAGGAAT, the switch fluorescence ratio was 0.96. For AGGCATAAGA, the switch fluorescence ratio was 1.06. Sequence AGGCATCAGG has a switch fluorescence ratio of 1. With AGGCATGCC the switch fluorescence ratio was 1.03. Work on AGGCATTAAG yielded a switch fluorescence ratio of 0.943. Work on AGGCATTTAC yielded a switch fluorescence ratio of 1.61. Sequence AGGCCCAAGT has a switch fluorescence ratio of 0.992. AGGCCGTATG showed a switch fluorescence ratio of 0.955. AGGCCTAAGA was tested, and the switch fluorescence ratio was 1. Work on AGGCGAATAT yielded a switch fluorescence ratio of 1.11. For AGGCGAGACG, the switch fluorescence ratio was 1.06. AGGCGCGTAA was tested, and the switch fluorescence ratio was 1.04. Work on AGGCGGTCAC yielded a switch fluorescence ratio of 1. AGGCGGTCAG showed a switch fluorescence ratio of 0.988. AGGCGGTCTA was tested, and the switch fluorescence ratio was 1.02. AGGCGTAGGT was tested, and the switch fluorescence ratio was 0.983. AGGCGTGGCG showed a switch fluorescence ratio of 0.918. With AGGCTAAGTT the switch fluorescence ratio was 1.05. With AGGCTACACA the switch fluorescence ratio was 1.01. With AGGCTCACCA the switch fluorescence ratio was 1.03. AGGCTCCTC showed a switch fluorescence ratio of 1.07. Work on AGGCTGCCTG yielded a switch fluorescence ratio of 1.01. For AGGCTGTGTT, the switch fluorescence ratio was 0.981. AGGCTTCGCA showed a switch fluorescence ratio of 1.1. With AGGGAAAACG the switch fluorescence ratio was 0.994. Sequence AGGGAACCGG has a switch fluorescence ratio of 1.03. For AGGGAATCAA, the switch fluorescence ratio was 0.989. For AGGGACCGGT, the switch fluorescence ratio was 0.96. AGGGACTACT was tested, and the switch fluorescence ratio was 1. AGGGAGCATC was tested, and the switch fluorescence ratio was 1.02. For AGGGAGGATA, the switch fluorescence ratio was 1.01. Work on AGGGATCACA yielded a switch fluorescence ratio of 1.03. Work on AGGGCAGCAG yielded a switch fluorescence ratio of 1.05. AGGGCATC gave a switch fluorescence ratio of 1. In the case of AGGGCGACCC, the switch fluorescence ratio is reported as 1.03. AGGGCGCAGT showed a switch fluorescence ratio of 1.03. In the case of AGGGCGTTGA, the switch fluorescence ratio is reported as 1.03. With AGGGCGTTTT the switch fluorescence ratio was 0.986. AGGGCTGGCT was tested, and the switch fluorescence ratio was 0.974. AGGGCTGGTA was tested, and the switch fluorescence ratio was 1. AGGGCTTGAT gave a switch fluorescence ratio of 1. AGGGGAACCT gave a switch fluorescence ratio of 1.24. AGGGGACCAA was tested, and the switch fluorescence ratio was 0.953. AGGGGACGCA gave a switch fluorescence ratio of 1.04. In the case of AGGGGACGGA, the switch fluorescence ratio is reported as 1.01. Sequence AGGGGATCTA has a switch fluorescence ratio of 0.968. AGGGGCAGCG was tested, and the switch fluorescence ratio was 1.03. AGGGGCATC gave a switch fluorescence ratio of 0.993. AGGGGGAAGG showed a switch fluorescence ratio of 1.03. AGGGGGCTAC was tested, and the switch fluorescence ratio was 0.963. AGGGGGTCG was tested, and the switch fluorescence ratio was 0.94. Work on AGGGGTA yielded a switch fluorescence ratio of 1. AGGGGTTAC gave a switch fluorescence ratio of 1.04. With AGGGTACATT the switch fluorescence ratio was 1.07. With AGGGTACGGC the switch fluorescence ratio was 0.997. With AGGGTAGGTT the switch fluorescence ratio was 0.919. Work on AGGGTCCAGG yielded a switch fluorescence ratio of 1.4. Sequence AGGGTCCTCT has a switch fluorescence ratio of 1.02. In the case of AGGGTCTACA, the switch fluorescence ratio is reported as 1.01. For AGGGTCTGCC, the switch fluorescence ratio was 1.01. Sequence AGGGTGCCGC has a switch fluorescence ratio of 1.01. AGGGTGGTCA gave a switch fluorescence ratio of 0.983. For AGGGTTAACC, the switch fluorescence ratio was 1.02. AGGGTTGATG gave a switch fluorescence ratio of 0.985. Sequence AGGGTTGTAA has a switch fluorescence ratio of 0.998. Work on AGGGTTTTGT yielded a switch fluorescence ratio of 0.965. Sequence AGGTACCTTT has a switch fluorescence ratio of 0.946. With AGGTAGAGC the switch fluorescence ratio was 0.969. AGGTATAAAC showed a switch fluorescence ratio of 1.02. AGGTATAGTG gave a switch fluorescence ratio of 0.985. AGGTATCGA gave a switch fluorescence ratio of 1.05. In the case of AGGTATGCGG, the switch fluorescence ratio is reported as 0.97. AGGTCAAAT was tested, and the switch fluorescence ratio was 1.02. AGGTCAAATT gave a switch fluorescence ratio of 0.973. With AGGTCACTGC the switch fluorescence ratio was 0.951. In the case of AGGTCCCGGC, the switch fluorescence ratio is reported as 0.981. With AGGTCCTAGT the switch fluorescence ratio was 0.999. Sequence AGGTCGAGTG has a switch fluorescence ratio of 0.986. AGGTCGGCGT was tested, and the switch fluorescence ratio was 0.869. AGGTCGGTTG gave a switch fluorescence ratio of 1.04. For AGGTCTATAT, the switch fluorescence ratio was 0.972. AGGTCTTTAC was tested, and the switch fluorescence ratio was 1. Work on AGGTGACTGG yielded a switch fluorescence ratio of 1.05. For AGGTGAGCTG, the switch fluorescence ratio was 1.03. In the case of AGGTGCAAAC, the switch fluorescence ratio is reported as 1.09. With AGGTGCG the switch fluorescence ratio was 0.983. Work on AGGTGCTCGA yielded a switch fluorescence ratio of 1.02. For AGGTGGAAAT, the switch fluorescence ratio was 1.03. In the case of AGGTGGCTA, the switch fluorescence ratio is reported as 1. For AGGTGGTACG, the switch fluorescence ratio was 0.985. In the case of AGGTGTAGTC, the switch fluorescence ratio is reported as 1.04. AGGTGTTGTC gave a switch fluorescence ratio of 0.873. For AGGTGTTTG, the switch fluorescence ratio was 1.04. For AGGTTACAC, the switch fluorescence ratio was 0.992. With AGGTTAGCAT the switch fluorescence ratio was 0.976. For AGGTTCAGCC, the switch fluorescence ratio was 1.02. In the case of AGGTTGGTTT, the switch fluorescence ratio is reported as 0.996. For AGGTTTGAAC, the switch fluorescence ratio was 0.99. AGTAAAACAT gave a switch fluorescence ratio of 0.989. With AGTAAACAAG the switch fluorescence ratio was 1.02. Sequence AGTAACCAGA has a switch fluorescence ratio of 0.984. Sequence AGTAAGGGAT has a switch fluorescence ratio of 0.924. AGTAAGTAAA was tested, and the switch fluorescence ratio was 1.04. AGTAATAATC was tested, and the switch fluorescence ratio was 1.17. Sequence AGTAATAGCC has a switch fluorescence ratio of 0.864. In the case of AGTAATCGTT, the switch fluorescence ratio is reported as 1.04. AGTAATCTAC gave a switch fluorescence ratio of 0.991. Sequence AGTAATGTTC has a switch fluorescence ratio of 1.04. With AGTACAGGA the switch fluorescence ratio was 1.03. In the case of AGTACCCAT, the switch fluorescence ratio is reported as 1.05. For AGTACCTGTG, the switch fluorescence ratio was 1.02. Sequence AGTACGTGGA has a switch fluorescence ratio of 1.01. AGTACTTCGG showed a switch fluorescence ratio of 1.01. AGTAGACGCT showed a switch fluorescence ratio of 0.994. AGTAGAGAAA showed a switch fluorescence ratio of 1.02. AGTAGATCGG gave a switch fluorescence ratio of 0.991. AGTAGCTGTA gave a switch fluorescence ratio of 1.14. AGTAGCTTTC gave a switch fluorescence ratio of 1.11. For AGTAGGGTTC, the switch fluorescence ratio was 0.956. AGTAGTGAAG was tested, and the switch fluorescence ratio was 1.02. For AGTAGTGCGC, the switch fluorescence ratio was 1.01. AGTAGTGTAG showed a switch fluorescence ratio of 1.05. AGTAGTTAAT showed a switch fluorescence ratio of 0.969. AGTAGTTATC showed a switch fluorescence ratio of 1.02. Work on AGTATCGGGT yielded a switch fluorescence ratio of 1.01. AGTATCTTGT was tested, and the switch fluorescence ratio was 1.02. AGTATGCCCT gave a switch fluorescence ratio of 1.01. Work on AGTATGTCAA yielded a switch fluorescence ratio of 0.953. Work on AGTATTCCTG yielded a switch fluorescence ratio of 0.995. In the case of AGTATTCGCA, the switch fluorescence ratio is reported as 1.01. For AGTCAAAATA, the switch fluorescence ratio was 1.03. In the case of AGTCAAGTTG, the switch fluorescence ratio is reported as 0.949. Work on AGTCACCATC yielded a switch fluorescence ratio of 0.956. With AGTCACCCGG the switch fluorescence ratio was 2.93. Sequence AGTCACCTTT has a switch fluorescence ratio of 0.982. In the case of AGTCAGTTG, the switch fluorescence ratio is reported as 1. Work on AGTCATCCGA yielded a switch fluorescence ratio of 0.995. Work on AGTCCACATT yielded a switch fluorescence ratio of 1.06. Sequence AGTCCACCCA has a switch fluorescence ratio of 1.09. Work on AGTCCCAACG yielded a switch fluorescence ratio of 0.983. For AGTCCCGGC, the switch fluorescence ratio was 1.03. AGTCCCGGTG gave a switch fluorescence ratio of 1.81. For AGTCCCTAAG, the switch fluorescence ratio was 0.999. AGTCCGAGTC showed a switch fluorescence ratio of 1.04. In the case of AGTCCGGATG, the switch fluorescence ratio is reported as 1.03. Work on AGTCCTGCGT yielded a switch fluorescence ratio of 0.974. AGTCCTGCTA was tested, and the switch fluorescence ratio was 1.01. Sequence AGTCGAGTGT has a switch fluorescence ratio of 1. Work on AGTCGCACGC yielded a switch fluorescence ratio of 1.04. With AGTCGGCGTC the switch fluorescence ratio was 1.01. Work on AGTCGTATT yielded a switch fluorescence ratio of 0.955. Sequence AGTCTATTTA has a switch fluorescence ratio of 0.987. AGTCTCCTTA was tested, and the switch fluorescence ratio was 0.951. Sequence AGTCTTATAT has a switch fluorescence ratio of 0.985. In the case of AGTCTTTGGT, the switch fluorescence ratio is reported as 1.01. Sequence AGTCTTTGTG has a switch fluorescence ratio of 0.957. For AGTCTTTTCG, the switch fluorescence ratio was 1.03. AGTGAAAGGT gave a switch fluorescence ratio of 1.01. AGTGAAATAG showed a switch fluorescence ratio of 0.999. For AGTGAAGCGG, the switch fluorescence ratio was 0.959. For AGTGAAGTCG, the switch fluorescence ratio was 0.991. Sequence AGTGACATTA has a switch fluorescence ratio of 1.07. With AGTGACGA the switch fluorescence ratio was 0.989. Sequence AGTGACTGG has a switch fluorescence ratio of 1.02. AGTGATGGAG showed a switch fluorescence ratio of 0.966. In the case of AGTGCAGCCA, the switch fluorescence ratio is reported as 0.995. Sequence AGTGCCA has a switch fluorescence ratio of 0.966. Sequence AGTGCCTAGT has a switch fluorescence ratio of 0.976. AGTGCGATGG was tested, and the switch fluorescence ratio was 1.03. AGTGCTCAGG showed a switch fluorescence ratio of 1.06. Sequence AGTGGACCTC has a switch fluorescence ratio of 1. With AGTGGAGCGT the switch fluorescence ratio was 1.03. Work on AGTGGCCCAC yielded a switch fluorescence ratio of 1.02. Sequence AGTGGGATGT has a switch fluorescence ratio of 0.969. AGTGGGCCAC showed a switch fluorescence ratio of 0.977. With AGTGGGCGA the switch fluorescence ratio was 1.02. For AGTGGGGCGA, the switch fluorescence ratio was 1.16. AGTGGGTTCG was tested, and the switch fluorescence ratio was 1.01. Sequence AGTGTATCGC has a switch fluorescence ratio of 0.979. AGTGTCATGG gave a switch fluorescence ratio of 0.977. Work on AGTGTCCTCT yielded a switch fluorescence ratio of 1.02. AGTGTCTTCG showed a switch fluorescence ratio of 1.03. Sequence AGTGTGGAC has a switch fluorescence ratio of 1.03. In the case of AGTGTTACTT, the switch fluorescence ratio is reported as 1.03.
